Results: the supplement of paper PMC5499739
Over roughly 16,000 sequences, “Z-score” has its median near -0.37; the highest 2% begin near 3.2. The list shows a part of the results.

Test system: RBM10 RRM1-ZnF (GST-tagged construct)
Test: RNAcompete 7-mer binding Z-score; higher = stronger binding preference
Experimental: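 RNAcompete: 20 pmol GST-tagged RBM10 RNA-binding constructs were incubated with a designed RNA pool of about 241,000 sequences up to 41 nt (1.5 nmol) on glutathione beads for 30 min at 4 °C and washed. Bound RNAs were identified by microarray hybridisation. Each RNA 7-mer is scored by a one-sided Z-score of its enrichment, computed over probes that contain the 7-mer within longer pool sequences.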

| Sequence | RNAcompete 7-mer binding Z-score |
| --- | --- |
| AGCUUUC | -0.75 |
| GGGUCCC | 0.917 |
| AGGCUGA | 0.511 |
| UGUGGCA | 0.407 |
| GCGUUGU | -0.0707 |
| UUAUCUC | -0.772 |
| UUAAAAA | -0.444 |
| CACGGAG | 0.813 |
| UUACCGC | -0.789 |
| UCCCAGU | -0.516 |
| GCCUGUA | -0.701 |
| GCCGGAG | 0.368 |
| CAUUGCU | -0.727 |
| UGGAACA | 1.13 |
| CAUAAAC | -0.594 |
| UUGGCCG | -0.149 |
| ACAGGCG | 0.829 |
| UCGAAAC | -0.578 |
| UAUUCGU | -0.717 |
| UCUAUCG | -0.711 |
| CCCGUGC | -0.262 |
| AUGGCAG | 1.12 |
| CCGAAUC | -0.824 |

| Sequence | RNAcompete 7-mer binding Z-score |
| --- | --- |
| GACCACG | -0.496 |
| GCGAGCA | 0.972 |
| GGAAAGC | 1.8 |
| UGCUAAU | -0.604 |
| GUGGGCC | 1.46 |
| GGCUUAG | 0.527 |
| AAGACCC | -0.776 |
| AGCAACC | -0.766 |
| AUUGGUC | 0.000789 |
| AGUAGCA | 0.179 |
| AUUCGAA | -0.565 |
| CGGACAG | 0.703 |
| UCACCAG | -0.574 |
| UGUGUGA | 0.511 |
| AUCUACG | -0.545 |
| GACCGUG | -0.337 |
| GCAAACU | -0.285 |
| GUGAUAG | 1.16 |
| CUAGCUU | -0.785 |
| GGAGACG | 1.86 |
| UAUUUUA | -0.841 |
| UAUUUUC | -0.948 |
| CCCCCCA | -0.249 |

| Sequence | RNAcompete 7-mer binding Z-score |
| --- | --- |
| GGGUCUU | 0.524 |
| CCCGCAC | -0.467 |
| ACCAGGC | -0.467 |
| CGGCAGG | 0.992 |
| UCCACGU | -0.552 |
| GUCGUCU | -0.542 |
| CCACGGG | 1.12 |
| AGCAUGC | -0.379 |
| GCUAUCU | -0.743 |
| GAGCGUA | 0.348 |
| AAUGCCC | -0.613 |
| UAAUAAA | -0.594 |
| GAAUGUA | 0.894 |
| ACUGGGC | 1.09 |
| CUGACGA | -0.347 |
| CUUGGUU | -0.279 |
| GAUAAUU | -0.412 |
| AACCUAC | -0.668 |
| CUCGUAC | -0.584 |
| GCCAGGU | 0.426 |
| GGAAACC | 0.547 |
| CAAGUUA | -0.402 |
| CAUUGUU | -0.48 |

| Sequence | RNAcompete 7-mer binding Z-score |
| --- | --- |
| ACCCUCU | -0.876 |
| GCGUUAU | -0.149 |
| AAGAAAA | 0.102 |
| GUGCCGU | -0.0512 |
| AUAGCCG | -0.269 |
| ACCAGUG | -0.184 |
| GACGACC | -0.519 |
| AUUGACA | -0.123 |
| CCGGACU | -0.334 |
| AAAAGUA | 0.134 |
| UUUUGCU | -0.776 |
| GAAUGAA | 0.287 |
| UGUGAGA | 0.764 |
| UGGACGC | 0.446 |
| CGGAACU | 0.14 |
| GGUCUUA | -0.474 |
| UACUAUA | -0.438 |
| AGUCAGC | -0.262 |
| ACUUCUG | -0.847 |
| GUUCUAC | -0.821 |
| ACACCAU | -0.649 |
| UAAGCGC | -0.415 |
| CGGUGAA | 0.595 |

| Sequence | RNAcompete 7-mer binding Z-score |
| --- | --- |
| GUAGCUG | 0.225 |
| AACAUCA | -0.503 |
| AAUAACA | -0.308 |
| CUCCUGC | -0.698 |
| AUAACGG | 0.641 |
| CGCCGAG | -0.522 |
| GCAACCU | -0.688 |
| AUCCUCG | -0.818 |
| UCGCUCC | -0.629 |
| GUUGCCA | -0.448 |
| GCCCUAC | -0.607 |
| UGUCGCG | -0.262 |
| CCACAGU | -0.379 |
| CUGUGGC | -0.0804 |
| UCCCCAG | -0.412 |
| GAUACUC | -0.707 |
| UCGUACG | -0.246 |
| CUGACAU | -0.457 |
| CCCCACA | -0.555 |
| GAGAAAU | 0.348 |
| UCACCUU | -0.782 |
| CGACCAG | -0.282 |
| GCCGUUU | -0.951 |

| Sequence | RNAcompete 7-mer binding Z-score |
| --- | --- |
| GGUGCCC | 0.277 |
| CUGACCA | -0.659 |
| AGAAAGG | 4.58 |
| GUAAGGG | 3.85 |
| UUCGGAC | -0.539 |
| GAGUCAG | 0.407 |
| CGAAAGA | -0.204 |
| GGUAGGC | 1.92 |
| AUAGACC | -0.545 |
| AGAUGCU | -0.552 |
| ACAGCGG | 1 |
| UGCGAUC | -0.561 |
| UCAUUGG | -0.123 |
| UGAUUCU | -0.763 |
| GGGAGAG | 2.97 |
| CGCUCGC | -0.659 |
| ACGGUAG | 1.13 |
| CCUUAUG | -0.876 |
| GGCCCCC | -0.142 |
| UCGACGC | -0.665 |
| UCCAGUC | -0.782 |
| ACGCUUU | -0.886 |
| AGCUAAG | -0.035 |

| Sequence | RNAcompete 7-mer binding Z-score |
| --- | --- |
| ACCGGUC | -0.535 |
| UCUACAU | -0.646 |
| GACGGGG | 3.13 |
| CCCGACA | -0.649 |
| GUAACAC | -0.0155 |
| GGACACU | 0.102 |
| CGGGAAA | 2.41 |
| ACGGAAC | 0.651 |
| AUAAGCC | -0.792 |
| CUUGUCG | -0.629 |
| CAGCGGU | 0.527 |
| GGGCCGG | 1.23 |
| UGGUGCU | 0.956 |
| AGCAUGG | 1.6 |
| AUCACCU | -0.808 |
| GUCCACC | -0.698 |
| AUGGUGU | 2.3 |
| UUGAAGG | 2.03 |
| UCAGUUG | -0.353 |
| CACUGCC | -0.522 |
| GUGAUAC | 0.459 |
| GUUCCCU | -0.565 |
| ACUAUCC | -0.821 |

| Sequence | RNAcompete 7-mer binding Z-score |
| --- | --- |
| AUAAGGC | 0.342 |
| CGUAAUC | -0.545 |
| GUAAACA | 0.118 |
| CCUAAGC | -0.642 |
| CGCCUGC | -0.188 |
| GUAAUUA | -0.35 |
| GUGGAUG | 2.93 |
| GCCAACG | 0.0365 |
| AGUCGUC | -0.366 |
| GGGAUCC | 0.647 |
| AGGAUAG | 2.16 |
| AGCACGU | -0.269 |
| UGAUUUC | -0.847 |
| GUGCCUG | 0.0268 |
| CGCCGAC | -0.607 |
| GAUGGAC | 1.78 |
| AGCACAA | -0.438 |
| UAUGAUA | -0.201 |
| AAUGCUC | -0.636 |
| GUUUCGG | 0.865 |
| CUUCGUU | -0.837 |
| GAAACGC | -0.35 |
| ACGCCAG | -0.516 |
